Laboratory results taken from the supplement of paper PMC10338343.
± gives the standard deviation. The entries are a selection whose mix differs from that of the whole data set.

Tested on: MIWI (PIWIL1) piRISC loaded with L1MC piRNA (30 nt)
Assay: pre-steady-state target cleavage rate (min^-1); MIWI and MILI are mouse PIWI proteins and EfPiwi is from a freshwater sponge; tags in brackets are library labels; higher = faster piRNA-guided slicing of the target
Details: guide: L1MC piRNA 5'p-UAACUAAAUACUAUGCAAGCUGUAGGUCCU; auxiliary factor: 500 nM mouse GTSF1
Procedure, shortened: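 The pre-steady-state cleavage rate came from a burst-and-steady-state fit to pooled data from three Cleave-'n-Seq trials, in which uncleaved targets were sequenced and normalised to depth and to weakly complementary targets. Each reaction held 0.1 nM transcribed, DNA-blocked target RNA library and 1 nM active affinity-purified piRISC carrying one synthetic guide, with or without 500 nM GTSF1 partner protein, in HEPES–potassium acetate buffer at 33 °C for 0–8 or 0–960 min. k3 was capped at 0.0001 min^-1.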

Sequence	pre-steady-state target cleavage rate
UCGACCUACAGCUUGGAUAGUAUUUACAAA	0.179 ± 0.036
UCCACCUACAGCUUGCAAAGUAUUUUCAAA	0.214 ± 0.035
UCCUGGAUGUCGUUGCUUUGUAUUUAGUUA	< 0.0001
UCCUGGAACAGCUUGCAUAGUAUUAUGUAA	0.0143 ± 0.0054
UCCUGCUACAGCUACCAUAGUAUUUUCAAA	0.0102 ± 0.0049
ACCUCCUACAGCUUGCAUAGUAUUUACAAA	0.466 ± 0.052
UCCUGGUACAGCUUGCAUUAGUAUUUAGUUA	0.00882 ± 0.006
UCCUGCUACAGCUUGCUUAGUAUUUACAAA	0.0704 ± 0.016
UCCUGGUACAGCUUGCCAUAGUAUUUAGUUA	0.0951 ± 0.024
UCCUGGAACAGCUUCCAUAGUAUUUUGUUA	0.013 ± 0.0064
UCCUGGUACACCUUGCAUAGUAUUUUCAAA	0.0614 ± 0.027
UCCUGCUACAGGAUGCAUAGUAUUUACAAA	0.0324 ± 0.0099
UGGACCUACAGCUUGCUAAGUAUUUAGAAA	0.0267 ± 0.0083
UCCUGCUACAGCUUGCAUAGUAUUUUCAAA	0.335 ± 0.059
UCCUGGAUGUCGAACCUUAGUAUUUAGUUA	< 0.0001
UCCUGCUAGAGCUUGCAUAGUAUUUUCAAA	0.104 ± 0.027
UGGACCUACAGCUUGCAUAGAUAUUAGUUA	0.0135 ± 0.0047
UCCUCCUACAGCUUGCAUAGUAUAUACAAA	0.267 ± 0.044
UGGACCUACAGCUUGCAUAGCUAUUUAGUUA	0.00639 ± 0.0036
UCCUCCUACAGCUUCGUUAGUAUUUAGUAA	0.0325 ± 0.011
UGGACCUACAGCUUGCAUAGUAAAUAGUAA	0.224 ± 0.034
UCCUGCUACAGCUUGCAAAGUAUUUUCAAA	0.278 ± 0.053
UCCUGGAUGUCGAACGUAAGUAUUUACAAA	< 0.0001
UCCUGGAACAGCUUGCAUAGUAAAAAGUAA	0.0753 ± 0.019
